Test results: PubChem BioAssay AID463173 (ICCB-Longwood Screening Facility, Harvard Medical School, 2010)
About 4,300 (8.3%) of roughly 52,000 compounds were called active. No stated cut-off is given here; in the data, active means survival mostly below about 52% (no sharp cut-off); inactive means mostly above about 56%. The list shows a part of the results.

tested on: DeltatarO mutant; test: growth inhibition of S. aureus wild type versus tarO mutant, primary screen, teichoic acid synthesis inhibitors, RN4220, OD600 (AID 463173); settings: OD600, 18 h, active compounds read low, screened at 18.75 µg/mL (by protocol)

SMILES | survival
CCSc1oc(-c2cccs2)nc1S(=O)(=O)c1ccc(Br)cc1 | inactive: 56%
Cc1ccccc1C(=O)Nc1c(C(=O)Nc2cccc(F)c2)oc2ccccc12 | active: 46%
O=C(NCc1ccc2c(c1)OCO2)c1ccc2c(c1)N(Cc1ccccc1F)C(=O)c1ccccc1S2=O (stereo not drawn) | inactive: 88%
COc1ccccc1NC(=O)c1cc2c(C)nn(-c3ccccc3)c2s1 | active: 0%
COc1ccc(N2CCN(C(=O)COCc3cc(-c4ccc5c(c4)OCO5)on3)CC2)cc1 | inactive: 92%
COc1ccc(NC(=O)c2sc3nc(C(F)(F)F)cc(C)c3c2N)cc1OC | inactive: 140%
Cc1ccc(NC(=O)c2nc(S(C)(=O)=O)ncc2N(Cc2ccco2)Cc2cccs2)cc1C | active: 40%
CCN(CC)S(=O)(=O)c1ccc2c(c1)nc(CN(C)C(=O)Nc1ccc(C)c(F)c1)n2C | inactive: 77%
O=C(OCC1CCCO1)c1ccc2c(c1)N(Cc1ccccc1)C(=O)c1ccccc1S2(=O)=O (stereo not drawn) | inactive: 89%
CCc1ccccc1NC(=O)CN1C(=O)CCSc2ccc(S(=O)(=O)N3CCCC3)cc21 | inactive: 102%
CCOC(=O)C1CCCN(C(=O)Cn2ncc3c4ccccc4n(Cc4ccccc4)c3c2=O)C1 (stereo not drawn) | inactive: 108%
CCc1ccccc1NC(=O)C(C)n1c(=O)cc(C)c2c(C)nn(-c3ccccc3)c21 (stereo not drawn) | inactive: 90%
Cc1ccc(Cn2ccnc2SCC(=O)Nc2nnc(C)s2)cc1 | inactive: 55%
COc1ccc(OC)c(NC(=O)Nc2c(C)n(C)n(-c3ccccc3)c2=O)c1 | inactive: 88%
Cc1cc(C)cc(Oc2nc3ccccn3c(=O)c2/C=C(\C#N)c2nc3ccccc3s2)c1 | inactive: 60%
O=C(NC1CCN(Cc2ccccc2)CC1)c1ccc(Cn2c(=O)c3ccccc3n(Cc3ccc(F)cc3)c2=O)cc1 | inactive: 85%
Cn1c(=O)cc(SCC(=O)N2CCN(c3ccccc3F)CC2)c2ccc(Cl)cc21 | inactive: 70%
Cc1ccccc1OCCSc1nc2ccc(NC(=O)c3cccs3)cc2s1 | inactive: 49%
CCn1nc(-c2ccccc2)c(-c2ccccc2)c(C(=O)Nc2ccc(NC(C)=O)cc2)c1=O | inactive: 60%
Cc1ccc(C(=O)NC2(C(F)(F)F)N=C(c3ccccc3)N(Cc3ccccc3)C2=O)cc1 (stereo not drawn) | inactive: 66%
Cc1ccc(C(=O)Oc2cc(-c3ccc4c(c3)OCO4)cc(=O)c3c(C)oc(C)c23)cc1 | inactive: 119%
Cc1ccc(NC(=O)C2CCN(c3nc(-c4ccc(C(C)C)cc4)no3)CC2)c(Cl)c1 | inactive: 79%

SMILES | survival
Cc1ccccc1NC(=O)CSc1nc(-c2ccco2)nc2cc(=O)[nH]n12 | inactive: 87%
CC(=O)c1ccc(NS(=O)(=O)c2ccc(-n3cccn3)cc2)cc1 | inactive: 119%
CCOc1ccc(CNC(=O)c2cc(-c3ccc(Cl)s3)nc3ccccc23)cc1 | inactive: 96%
Cc1ccc2c(CNCc3ccc(C)o3)c(C(=O)O)n(Cc3ccc(F)cc3)c2c1 | inactive: 77%
O=C(c1ccc2c(c1)N(Cc1ccc(Cl)cc1)C(=O)c1ccccc1S2=O)N1CCCCC1 (stereo not drawn) | inactive: 72%
O=C(NCCN1CCCCC1)c1ccc(Cn2c(SCc3ccccc3)nc3cccnc32)cc1 | inactive: 148%
COCCCn1c(-c2ccc(S(=O)(=O)N3CCOCC3)cc2)csc1=Nc1ccccc1 | active: 52%
CC1(c2ccc(Cl)cc2)CC(C)(C)N(C(=O)c2cccc(F)c2)c2ccccc21 (stereo not drawn) | active: 11%
COc1ccc(CNC(=O)c2cc3sccc3n2Cc2ccc(C)cc2)cc1 | inactive: 74%
O=C(Cc1ccccc1)Nc1sc2c(c1C(=O)Nc1ccc(Br)cc1)CCCC2 | active: 57%
NC(=O)C1(C(N)=O)CCC1 | inactive: 81%
Cc1ccc(C(=O)Nc2ccccc2)cc1S(=O)(=O)Nc1ccccc1 | active: 46%
COC(=O)c1c(C)oc2ccc(N(C(=O)c3ccncc3)S(=O)(=O)c3cc(C)ccc3C)cc12 | inactive: 46%
Cc1ccc(NC(=O)C2CCC(CNS(=O)(=O)c3cccc4nsnc34)CC2)c(Cl)c1 (stereo not drawn) | active: 47%
CC(C)N(C(=O)c1cccs1)C(C)C | inactive: 97%
COc1ccc(N2CCN(C(=O)C3CCN(S(=O)(=O)c4cn(C)cn4)CC3)CC2)cc1 | inactive: 69%
Cc1ccc(OC(=O)CSc2nnc(-c3ccc4c(c3)OCO4)o2)cc1 | inactive: 70%
Cc1ccc(-n2ncc3c(N4CCC(Cc5ccccc5)CC4)ncnc32)cc1C | inactive: 88%
Cc1cccc(N(C)C(=O)Cc2c(C(=O)O)[nH]c3ccccc23)c1 | inactive: 134%
Cc1cccc(NC(=O)CCNS(=O)(=O)c2ccc3c(c2)CCN3C(=O)C2CC2)c1 | inactive: 86%
CCOC(=O)C1CCN(C(c2ccc(C)cc2)c2c(O)cc(C)n(CCOC)c2=O)CC1 (stereo not drawn) | inactive: 76%
CCOc1ccc(-c2cc(CCCC(=O)NCCc3cc(OC)c(OC)c(OC)c3)no2)cc1 | active: 43%

SMILES | survival
CN(C)c1nc(NCCNS(=O)(=O)c2ccc(Cl)cc2)nc(N(C)C)n1 | inactive: 84%
COc1ccc(CCNC(=O)CCCn2nc(C)c3sc4ccccc4c3c2=O)c(OC)c1 | inactive: 74%
CCOc1ccc(NC(=O)Cn2c(=O)n(CCCS(=O)(=O)C3CCCCC3)c(=O)c3ccccc32)cc1 | inactive: 77%
O=C1NC(c2ccccc2)/C(=C(\O)c2ccccc2)C1=O (stereo not drawn) | inactive: 70%
CC(C)(C)NSc1nc2ccccc2s1 | active: 58%
COC(=O)c1cc(-c2ccc(OC)c(OC)c2)nc2ccccc12 | inactive: 72%
CC(C)(C)OC(=O)N1CCC(c2c(C(=O)N3CCCCC3)cnn2-c2cccc(F)c2)CC1 | inactive: 126%
CC(=O)c1ccc(N2CCN(C(=O)CCc3nnc4n(C)c(=O)c5sccc5n34)CC2)cc1 | inactive: 55%
COc1cc(OC)c(NC(=O)c2noc3c2CSc2ccccc2-3)cc1Cl | inactive: 69%
CCCCn1c(SCC(=O)Nc2ccc(OCC)cc2)nc2ccsc2c1=O | inactive: 130%
Cc1ccc(CNC(=O)CSc2ncc3c(n2)-c2ccc(Cl)cc2N(Cc2ccccc2)S3(=O)=O)cc1 | inactive: 84%
Cc1ccc(NS(=O)(=O)c2cc3[nH]c(=O)c(=O)[nH]c3cc2C)cc1N(C)C | inactive: 74%
CCc1ccccc1NC(=O)[C@@H](c1ccccc1)N1Cc2ccccc2C1=O | active: 4%
Cc1ccc(NC(=O)CCCn2c(=O)c3cccn3c3cccnc32)cc1C | inactive: 79%
Cc1ccc(C)c(NC(=O)CSc2nnc(-c3cc4occc4n3C)n2-c2ccccc2C)c1 | inactive: 94%
Cc1cccc(C(=O)Nc2sc3c(c2C(=O)NC(C)C)CCCC3)c1 | active: 46%
Cn1c(=O)c2c(nc(NCCc3ccccc3)n2Cc2ccc(Cl)cc2)n(C)c1=O | inactive: 48%
CCOC(=O)c1cc(S(=O)(=O)NCc2cccc(Cl)c2)[nH]n1 | inactive: 88%
COc1ccc(OCC(=O)OCc2cc(=O)n3nc(C4CC4)sc3n2)cc1 | inactive: 61%
Cc1ccc(Nc2c(-c3ccc(C)s3)nc3ncccn23)cc1 | active: 9%
CCOC(=O)c1c(NC(=O)/C=C/c2ccc(C)cc2)sc2c1CCCC2 | active: 22%
CCCCOC(=O)c1ccc(NC(=O)c2cc(-c3cccs3)on2)cc1 | inactive: 87%

SMILES | survival
Cc1ccc(CNC(=O)CCCc2nnc3n(C)c(=O)c4sccc4n23)cc1 | inactive: 82%
O=C(NCCc1ccc(Cl)cc1)c1cc(-c2ccc(Cl)cc2)n[nH]1 | inactive: 68%
Cc1ccc(NC(=O)C(=O)NCC(c2ccc3c(c2)OCO3)N2CCOCC2)cc1C (stereo not drawn) | inactive: 73%
CCC(C)NC(=O)c1ccc2nc(CCc3ccccc3)oc2c1 (stereo not drawn) | inactive: 72%
CC(C)CC(=O)Nc1ccccc1OCc1cc(=O)n2ccccc2n1 | inactive: 89%
CC(=O)N1CCc2c(sc3c2c(=O)n(-c2cc(Cl)ccc2C)c(=O)n3Cc2ccccc2F)C1 | inactive: 86%
CC1(C)CC(=O)c2c(oc3c(Cl)cc(NS(=O)(=O)c4ccc(Br)cc4)cc23)C1 | inactive: 63%
Cc1ccc(C)n1/N=C1\NC(=O)CS1 | inactive: 105%
COc1ccc(C(=O)COC(=O)CCCC(=O)Nc2cc(C(F)(F)F)ccc2Cl)cc1 | inactive: 53%
COC(=O)c1cc(Cl)ccc1NC(=O)CSc1ncc(S(=O)(=O)c2ccc(Br)cc2)c(=O)[nH]1 | inactive: 69%
O=C(Nc1ccc(Br)cc1F)N1CCC(CN2CCc3ccccc3C2)CC1 | inactive: 79%
N#C/C(=C/c1ccc(-c2ccc(Cl)c(C(=O)O)c2)o1)C(=O)NC1CCCC1 | inactive: 96%
CCc1c(C)nc2c(C)cccc2c1SCCC#N | inactive: 93%
CCOc1ccccc1Nc1sc(C(=O)c2ccccc2)c(N)c1S(=O)(=O)c1ccc(C)cc1 | inactive: 92%
COc1ccc(OC)c(NC(=O)c2cn(CC(C)C)c(=O)c3cc(OC)c(OC)cc23)c1 | active: 50%
Cc1ccc(CCNC(=O)c2cc3c(-c4ccccc4F)nn(C)c3s2)cc1 | inactive: 52%
O=C(NCc1ccccc1F)C(=O)NCC(c1ccco1)S(=O)(=O)c1cccs1 (stereo not drawn) | active: 25%
O=C(CSc1nc(-c2ccccc2)nc2c1Cc1ccccc1O2)N1CCCCC1 | inactive: 58%
CC1=C(C(=O)Nc2ccccc2)C(c2cccc(Cl)c2)n2nc(SCC(=O)c3ccc(C)cc3)nc2N1 (stereo not drawn) | active: 52%
Cc1ccc(Cn2c(=O)n(CCCCC(=O)NCc3ccccc3Cl)c(=O)c3ccccc32)cc1 | inactive: 102%
O=c1[nH]c2ccc(NCc3ccc(-c4ccccc4)o3)cc2[nH]1 | inactive: 86%
Cc1cccc(OCC(=O)Nc2ccccc2C(=O)OCc2cc(=O)n3nc(C)sc3n2)c1 | inactive: 71%
